# PubChem BioAssay AID504832 (National Center for Advancing Translational Sciences (NCATS), 2011)
# Among all 310,000 compounds or so, about 18,000 (5.8%) were called active. This list was built around the results that the source calls inconclusive (neither active nor inactive); the mix of calls is not that of the screen. The call rests on the fitted dose curve; in most records, active means well fitted inhibition curve with a large enough effect; inconclusive means small, poorly fitted or top-dose-only effect, or another doubt; inactive means no such curve, though single readings can be large or run the other way. No potency is given beside an inconclusive call; the fits are too rough.
# Assay: Primary qHTS for delayed death inhibitors of the malarial parasite plastid, 48 hour incubation
# Conditions: P. falciparum luciferase growth in erythrocytes; series mostly up to 28.7 µM; activity change, negative = inhibition: at the top concentration
# Method in brief: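 In quantitative HTS format, infected erythrocytes bearing luciferase-reporter parasites were treated for a single generation at 37 C. Luminescence after adding detection reagent served as the growth measure.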
# On the % scale 0 is the no-effect control and ±100 the full control effect; potency means the concentration at half of the fitted maximal effect; tags describe the fitted curve by direction and shape.
Structure (SMILES),Potency,"activity change, negative = inhibition"
CC(=O)c1cccc(S(=O)(=O)N2CCCC(c3nc4c(nnn4Cc4ccccc4Cl)c(=O)[nH]3)C2)c1 (stereo not drawn),"inconclusive [inhibitor, single point]",
Cc1cc(N2CCCCC2)n2nc(C)c(-c3ccccc3)c2n1,"inconclusive [inhibitor, single point]",
CCN(CC(=O)Nc1cccc(OC)c1)C(=O)c1ccco1,,inactive: 44.7%
O=C(N/C=N/OCc1cccc(C(F)(F)F)c1)N1OC[C@@H]2COc3ccc4ccccc4c3[C@@H]21,"inconclusive [inhibitor, single point]",
c1ccc(CN2CCC3(CC2)Nc2ccccc2S3)cc1,,inactive: 5.26%
Cc1c(C(=O)Nc2ccc(Cl)cc2)c2ccccn2c1CCc1ccncc1,"inconclusive [inhibitor, single point]",
Cc1c(C(=O)OCC2CCCO2)[nH]c2c1C(=O)CC(c1ccco1)C2 (stereo not drawn),"inconclusive [inhibitor, single point]",
O=C(OCCCc1ccncc1)c1ccc(S(=O)(=O)N2CCOCC2)cc1,"inconclusive [inhibitor, partial curve, poor fit]",
CCS(=O)(=O)c1ccc(OC)c(N=Nc2ccc(O)c3ncccc23)c1,"inconclusive [inhibitor, partial curve, poor fit]",
CCN1CCN(CCNC(=O)Nc2ccc([N+](=O)[O-])cc2)CC1,,inactive: -20.2%
O=C(CCc1nc2ccccc2c(=O)[nH]1)Nc1cccc(S(=O)(=O)N2CCOCC2)c1,"inconclusive [inhibitor, single point]",
CCOC(=O)c1c(C)oc2c1c(C(c1ccncc1)N1CCOCC1)c(O)c1ccccc12 (stereo not drawn),"inconclusive [inhibitor, partial curve, poor fit]",
CCN1CCCC1Cn1cnc2c([nH]c3cccc(Cl)c32)c1=O (stereo not drawn),"inconclusive [inhibitor, single point]",
COc1ccc(/C=C/C(=O)C2CC2)cc1COc1cccc(C)c1C,"inconclusive [inhibitor, single point]",
O=C(O)CNc1ccc(S(=O)(=O)C(F)(F)F)cc1[N+](=O)[O-],,inactive: 20.7%
Cc1ccc2occ(C(c3nnnn3Cc3ccccc3)N3CCOCC3)c(=O)c2c1 (stereo not drawn),"inconclusive [inhibitor, single point]",
Oc1ccc(Br)cc1CN1CCCCCCC1,active: 1.65 µM,
COc1ccccc1/C=C/C(=O)OCCN1CCOCC1,,inactive: 19.9%
CCC(=O)N1CCN(c2ccccc2NC(=O)c2ccc([N+](=O)[O-])o2)CC1,"inconclusive [inhibitor, partial curve]",
CCN1C(=O)C(CC(=O)Nc2ccc(OC)cc2)N(CCCN2CCN(c3ccc(F)cc3)CC2)C1=S (stereo not drawn),"inconclusive [inhibitor, single point]",
Cc1ccc2[nH]c(-c3ccccc3)cc(=O)c2c1,"inconclusive [inhibitor, full curve]",
COC(=O)c1c(-c2ccc(OC)c(OC)c2)csc1N,"inconclusive [inhibitor, single point]",
COC(=O)C1=C(C)NC2=C(C(=O)CCC2)C1c1cn(Cc2ccc(Br)cc2)nc1-c1ccccc1 (stereo not drawn),active: 8.28 µM,

Structure (SMILES),Potency,"activity change, negative = inhibition"
O=[n+]1cc(-c2ccc(F)cc2)n([O-])c2c1CCC2,,inactive: -2.3%
Cc1ccccc1CNC(=O)Nc1cccs1,,inactive: 83.6%
Cc1ccc(O)c(NC(=O)C2CC(c3cccc(Br)c3)=NO2)c1 (stereo not drawn),"inconclusive [inhibitor, partial curve, poor fit]",
COC(=O)C1=C(C)N=c2s/c(=C/c3ccoc3)c(=O)n2C1c1ccccc1 (stereo not drawn),"inconclusive [inhibitor, partial curve, poor fit]",
Cc1ccc2c(c1)C(c1ccc(N3CCOCC3)cc1)=NNC(c1cccs1)=N2,"inconclusive [inhibitor, single point]",
CCCCCn1c(=N)c(S(=O)(=O)c2ccc(Br)cc2)cc2c(=O)n3cccc(C)c3nc21,"inconclusive [inhibitor, full curve]",
COc1ccccc1-c1nc2cc3ccccc3cc2nc1-c1ccccc1OC,"inconclusive [inhibitor, partial curve, poor fit]",
CN(Cc1ccc(Cl)cc1)C(=O)COC(=O)CSc1ccc([N+](=O)[O-])cc1,,inactive: -28.7%
Cc1ccc(C(=O)CC2C(=O)N(c3ccccc3)C(=S)N2c2ccccc2)cc1 (stereo not drawn),"inconclusive [inhibitor, single point]",
O=C(/C(=C(\O)c1ccccc1)c1ncc[nH]1)c1ccccc1,"inconclusive [inhibitor, full curve]",
Cc1ccc(CCNC(=O)C2CCCN(c3ncnc4c3nc3n4CCCCC3)C2)cc1 (stereo not drawn),"inconclusive [inhibitor, partial curve]",
O=C(O)c1cccc(Nc2cc(Cl)c3nonc3c2[N+](=O)[O-])c1,"inconclusive [inhibitor, partial curve]",
O=C(Nc1ccc2c(c1)OCO2)N1CCCC1,,inactive: -4.09% [at 5.75 µM]
CC(=O)/C(=C\N(C)C)Sc1ccc(Cl)cc1,"inconclusive [inhibitor, partial curve]",
Cn1nc(C(=O)NC2CCCC2)c2ccccc2c1=O,,inactive: 9.44%
CC(C)N(C(=O)Cn1cc(S(=O)(=O)CC(=O)N2CCOCC2)c2ccccc21)C(C)C,,inactive: -2.29%
CC(=O)Nc1ccc(NC(=O)C2CC(=O)N(Cc3ccccc3)C2)cc1 (stereo not drawn),,inactive: 17.8%
Cc1ccc(C)c(S(=O)(=O)N2CCN(C(=O)c3ccc(OCc4c(C)noc4C)cc3)CC2)c1,"inconclusive [inhibitor, partial curve]",
CCc1nnc(NC(=O)CN2C(=O)N(C)C3(CCCCC3)C2=O)s1,"inconclusive [inhibitor, single point]",
CCCC(C(=O)NCCC(C)C)N(Cc1ccccc1)C(=O)c1snc(C(N)=O)c1N (stereo not drawn),"inconclusive [inhibitor, single point]",
COc1ccc(N(CC(=O)Nc2ccccc2OC)S(=O)(=O)c2ccccc2)cc1Cl,"inconclusive [inhibitor, partial curve, poor fit]",
Cc1ccc(NC(=O)c2cncc(Br)c2)c(O)c1,,inactive: -27.6%
Cc1noc(C)c1COc1ccccc1C(=O)N1CCN(c2cccc(C(F)(F)F)c2)CC1,"inconclusive [inhibitor, single point]",

Structure (SMILES),Potency,"activity change, negative = inhibition"
CCCN(CCC)CCNC(=S)Nc1ccc2nc3n(c(=O)c2c1)CCCCC3,"inconclusive [inhibitor, partial curve, poor fit]",
CCN(CC)S(=O)(=O)c1ccc(C(=O)NCC(c2ccc(OC)cc2)N2CCOCC2)cc1 (stereo not drawn),"inconclusive [inhibitor, single point]",
Cc1ccc(OCCCCN(C)Cc2ccccc2)c(Br)c1,"inconclusive [inhibitor, single point]",
Fc1ccccc1NC(=S)NN(Cc1ccccc1)c1ccccc1,,inactive: -25.9%
Cn1c2ccccc2c2cc(/C=C(\NC(=O)c3ccccc3)C(=O)NCC(=O)O)ccc21,"inconclusive [inhibitor, single point]",
Cc1csc2ncnc(N3CCN(C(=S)Nc4ccc(C(F)(F)F)cc4)CC3)c12,,inactive: 46%
CCOc1ccc(OCC)c(-c2c(=O)n(OCc3ccc(Cl)cc3)c3ccccc3[n+]2[O-])c1,"inconclusive [inhibitor, partial curve]",
CCOP(=O)(OCC)C(Nc1ccccn1)c1ccccc1 (stereo not drawn),,inactive: 26.1%
O=C(C1=C[C@@H](C2CCCCC2)C[C@@H](OCc2ccc(CO)cc2)O1)N1CCN(Cc2ccccc2)CC1,active: 4.15 µM,
COc1ccc(CCNC(=O)COc2ccc(S(=O)(=O)NC(C)C)cc2Cl)cc1OC,"inconclusive [inhibitor, single point]",
COc1ccccc1CNc1nc2ccccc2n1CCN1CCCCC1,"inconclusive [inhibitor, partial curve, poor fit]",
CCCOc1c(Br)cc(C2C3=C(CCCC3=O)N(C)C3=C2C(=O)CCC3)cc1OC,active: 9.28 µM,
Cc1ccc(-c2csc(NC(=O)C[n+]3cc(-c4ccc(C)cc4)n4c3CCC4)n2)cc1,"inconclusive [inhibitor, single point]",
COc1ccc(N2CCn3c2nc2c3c(=O)n(CCCc3ccccc3)c(=O)n2C)c(OC)c1,"inconclusive [inhibitor, partial curve, poor fit]",
CCOC(=O)c1ccc(NC(=S)NCc2cccnc2)cc1,,inactive: -8.64%
NC(=O)c1ccsc1NC(=O)COC(=O)c1ccccc1NCc1ccco1,,inactive: 55.2%
CN(Cc1cnccn1)C(=O)CC1C(=O)NCCN1CC(c1ccccc1)c1ccccc1 (stereo not drawn),"inconclusive [inhibitor, partial curve]",
COc1ccccc1-c1noc2ncnc(Nc3ccc4c(c3)OCO4)c12,,inactive: -7.55%
CCOc1ccc(CNC(=O)CCn2c(=O)oc3ccccc32)cc1OC,"inconclusive [inhibitor, partial curve]",
CCCn1c(SCC(=O)C(C)(C)C)nc2ccccc21,,inactive: -17.7%
COc1ccc(NC(=O)NCc2cccnc2)cc1,,inactive: 12.7%
CC(NC(=O)c1ccc(CS(C)(=O)=O)cc1)c1cccc2ccccc12 (stereo not drawn),"inconclusive [inhibitor, single point]",
